Reference: publication PMC3124571 (Biochemical pharmacology, 2011)

Tested on: baboon placental microsomes
Assay: Biotransformation of bupropion by baboon placental microsomes
Details: bupropion 250 µM, 40 min

| SMILES | percent of the sum of the three metabolites formed by placental microsomes |
| --- | --- |
| CC(NC(C)(C)C)C(O)c1cccc(Cl)c1 (centres unmarked) [EB, erythrohydrobupropion] | 18% |
| C[C@H](NC(C)(C)C)[C@@H](O)c1cccc(Cl)c1 [TB, threohydrobupropion] | 82% |
